Laboratory results reported in US10493061B2, “Compositions and methods comprising 2-(acylamino)imidazoles” (priority 2014, dated 2019).

System: metal trafficking genes (MT1F, MT1X, MT2A, SLC30A1, SLC30A2) in MCF-7 cells
Assay: Transcriptome sequencing (RNA-seq)
Conditions: 30 μM ZNA, only after three hours, not sustained at 12 hours

With `COc1ccc(-c2c(Cc3ccccc3)[nH]/c(=N\C(=O)c3ccccc3F)n2C)cc1` [ZNA, (E)-N-(4-benzyl-5-(4-methoxyphenyl)-1-methyl-1H-imidazol-2(3H)-ylidene)-2-fluorobenzamide] the “expression of SLC30A1 and SLC30A2 transcripts” value was “increased expression”.
